Laboratory results as given in PubChem BioAssay AID1508642 (National Center for Advancing Translational Sciences (NCATS), 2021).
About 200 (0.47%) of roughly 43,000 compounds were called active. Inconclusive results (about 12%) are left out. Calls come from the whole dose curve; as a rule, active = well fitted cell-killing curve with a large enough effect; inconclusive = small, poorly fitted or top-dose-only effect, or effect the other way; inactive = flat fitted curve, though single readings scatter. This is one part of the list.

test: Cell viability qHTS assay in S16 Pmp22-F2sN cells; conditions: S16 Pmp22-F2sN Schwann cells (luciferase reporters placed in the Pmp22 gene) viability, CellTiter-Glo, 24 h; series mostly up to 57.5 µM; activity change, negative = cytotoxicity: at the top concentration; note: nearly all actives have a fitted effect of over 65% in size
How it was run: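 Rat S16 Schwann reporter line, 24 h treatment with library compounds delivered at 23 nL per well. Cell viability by CellTiter-Glo luminescence.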
% is set by controls: 0 for no effect and ±100 for the full control effect.

SMILES | activity change, negative = cytotoxicity
O=C(CN1C(=O)c2cccnc2Oc2ccc(Cl)cc21)NCCc1ccccc1 | inactive: -0.0924%
Cc1ccc(NC(=O)CN2C(=O)COc3ccc(S(=O)(=O)NC4CCCC4)cc32)cc1Cl | inactive: -0.445%
CC(C)(C)C(=O)Cn1c(=O)n(-c2ccccc2)c(=O)c2c3c(sc21)CCC3 | inactive: 14.1%
Cc1cc(C)c2c(=O)cc(C(=O)Nc3c(C)n(C)n(-c4ccccc4)c3=O)oc2c1 | inactive: -3.32%
CCOc1ccc(-c2cc3c(=O)n(CC(=O)Nc4cc(F)ccc4C)ccn3n2)cc1 | inactive: 3%
COc1ccc(C(=O)c2c(N)c(-c3nc(-c4ccc(OC)cc4)cs3)c3ccccn23)cc1 | inactive: 18.8%
Cc1cc(C)c(/C=C/c2onc(C)c2S(=O)(=O)N2CCC(C(=O)NCc3ccccc3Cl)CC2)c(C)c1 | inactive: 0.594%
COc1cc2[nH]c(=O)n(CCC(=O)N3CCN(c4ccc(Cl)cc4)CC3)c(=O)c2cc1OC | inactive: 0.155%
CCn1nc(-c2ccccc2)c(-c2ccccc2)c(C(=O)Nc2ccccc2C#N)c1=O | inactive: -0.618%
Cc1cccc(NC(=O)CSc2nc3ccccc3nc2N2CCCCC2)c1C | inactive: -27.2%
COc1cc(NC(=O)C(Cc2ccccc2)NS(=O)(=O)c2cccc3nsnc23)cc(OC)c1 (centres undefined) | inactive: -6.9%
CCOc1ccc(N(CC(=O)Nc2ccccc2CC)S(=O)(=O)c2c(C)noc2C)cc1 | inactive: 15.1%
Cc1ccc(Cl)cc1NC(=O)C1CCN(S(=O)(=O)c2cccc3nonc23)CC1 | inactive: 12.4%
COc1cccc(Cn2c(=O)n(CCc3ccccc3)c(=O)c3c2c2cc(OC)ccc2n3C)c1 | inactive: -0.964%
COc1ccc(C(=O)NNc2ncnc3c2cnn3-c2ccc(C)c(Cl)c2)cc1 | inactive: -16.5%
CC(=O)c1cccc(NC(=O)CCc2c(C)nc3c(c(C)nn3-c3ccccc3)c2C)c1 | inactive: -0.319%
Cc1cc(C)cc(NC(=O)c2cc(S(=O)(=O)N3CCC(C)CC3)cn2C)c1 | inactive: 6.01%
CCCCNc1nc(Oc2ccc(=O)n(C)n2)nc(N2CCOCC2)n1 | inactive: 5.81%
COc1ccc(Br)cc1CNC(=O)c1ccc2c(c1)nc1n2CCC(C)C1 (centres undefined) | inactive: 11%
O=C(Cn1ccn(-c2ccc(F)c(F)c2)c(=O)c1=O)NCCc1ccccc1 | inactive: 4.8%

SMILES | activity change, negative = cytotoxicity
CN1CCN(C(=O)c2ccc3c(c2)N(Cc2ccc(Cl)cc2)C(=O)c2ccccc2S3(=O)=O)CC1 | inactive: 22.1%
O=C(c1ccccc1Br)N(Cc1ccccc1F)C1CCS(=O)(=O)C1 (centres undefined) | inactive: 1.39%
CCC(C)NC(=O)CSCc1nc(-c2ccc(C)cc2)oc1C (centres undefined) | inactive: -3.07%
Cc1cccc(CC(=O)NCCc2sc3nc(-c4ccc(F)cc4)nn3c2C)c1 | inactive: -18.4%
CCOc1ccc(CCNC(=O)c2ccc(-c3nc(CSc4ccccc4)c(C)o3)cc2)cc1 | inactive: 2.66%
COc1ccc(OCC(=O)N(Cc2ccc(C)o2)C2CCS(=O)(=O)C2)cc1 (centres undefined) | inactive: 13%
Cc1ccc(Cl)cc1NC(=O)CSCc1cnn(-c2ccccc2)c1-n1cccc1 | inactive: -15.4%
O=C(Cn1c(=O)ccc2cc(S(=O)(=O)N3CCCC3)ccc21)Nc1ccc(Cl)cc1 | inactive: 11%
Cc1cccc(NS(=O)(=O)c2ccc3c(c2)CCN3C(=O)C2CC2)c1C | inactive: 1.81%
CCN(C(=O)c1cn(C)c(=O)c2ccccc12)c1cccc(C)c1 | inactive: 2.09%
COc1ccccc1NC(=O)CN1C(=O)CCSc2ccccc21 | inactive: 11.8%
COc1ccc(CNC(=O)CSc2ncc3c(n2)-c2cc(Cl)ccc2N(C)S3(=O)=O)cc1 | inactive: 15.2%
CCOC(=O)Cn1c(-c2cccs2)cc2cc(Cl)ccc21 | inactive: 0.949%
COC(=O)c1c(NC(=O)/C=C/c2ccc(OC)cc2)sc2c1CCC2 | inactive: 19.6%
COc1ccc(CCNC(=O)c2ccc3c(c2)N(Cc2cccc(Cl)c2)C(=O)c2ccccc2S3=O)cc1OC (centres undefined) | inactive: -1.8%
O=C(Cn1c(=O)n(-c2ccccc2)c(=O)c2ccc(C(=O)NCc3ccc4c(c3)OCO4)cc21)Nc1ccc(F)c(Cl)c1 | inactive: -10.2%
COc1ccc(N(C(=O)c2cccc(C)c2)S(=O)(=O)c2ccc3c(c2)n(C)c(=O)n3C)cc1 | inactive: -6.51%
CCOC(=O)c1cc(OC(=O)c2ccccc2OC)n(-c2ccccc2)n1 | inactive: -0.895%
CC(=O)N1CCc2cc(S(=O)(=O)NC(Cc3ccccc3)C(=O)Nc3ccc(C)cc3C)ccc21 (centres undefined) | inactive: 6.56%
O=C(CSc1nc2ccsc2c(=O)n1Cc1ccccc1F)NCc1ccccc1Cl | inactive: -16.2%

SMILES | activity change, negative = cytotoxicity
Cc1ccc(C)c(Cn2c(=O)n(-c3ccc(F)cc3)c(=O)c3sc4ccccc4c32)c1 | inactive: 3.27%
Clc1cccc(-n2ncc3c(Nc4ccc5c(c4)OCCO5)ncnc32)c1 | inactive: -4.23%
COc1ccc(N2CCN(C(=O)Cn3c(-c4cccs4)cc4ccccc43)CC2)cc1 | inactive: 13%
O=c1cc2nc(-c3ccccc3)nc(SCCOc3ccc(Cl)cc3)n2[nH]1 | inactive: -1.67%
Cc1nn2c(-c3ccco3)ccnc2c1-c1ccc(Cl)cc1 | inactive: 12.8%
CCOC(=O)c1cnc2c(C)cc(C)cc2c1Nc1ccccc1OCC | inactive: 19.5%
COc1ccc(C(=O)Nc2ccc3oc(-c4cc(Cl)ccc4Cl)nc3c2)cc1Br | inactive: 29.9%
O=C(Nc1cccc(Cl)c1Cl)c1cc(S(=O)(=O)N2CCCc3ccccc32)ccc1F | inactive: -0.583%
COc1cc(OC)c(N(C)C(=O)CSc2c3c(nc4ccc(Cl)cc24)CCCC3)cc1Cl | inactive: -3.48%
CCc1ccccc1NC(=O)Nc1cc(C(=O)NCc2ccccc2OC)ccc1N1CCCC1 | inactive: -9.52%
CCCN(C(=O)Cn1ncc2c([nH]c3ccccc32)c1=O)c1ccc(F)cc1 | inactive: 0.35%
COc1ccc2c(c1)c(=O)c(S(=O)(=O)c1ccccc1)cn2CC(=O)Nc1ccc2c(c1)OCO2 | inactive: -0.0218%
CCOC(=O)C1CCCN(C(=O)c2ccc3c(c2)N(Cc2ccccc2F)C(=O)c2ccccc2S3=O)C1 (centres undefined) | inactive: 13.5%
COc1ccc(CCNC(=O)CCn2c(=O)c3ccccc3n(CC(=O)Nc3cc(Cl)ccc3C)c2=O)cc1OC | inactive: 1.5%
CC(=O)c1cccc(NC(=O)CCCSc2nc(-c3ccco3)cc(C(F)(F)F)n2)c1 | inactive: -19.6%
Cc1ccc(NC(=O)c2ccc(CNS(=O)(=O)c3ccc4c(c3)C(C)(C)C(=O)N4C)cc2)cc1 | inactive: 1.41%
COc1cccc(-c2nc(SCC(=O)NCC3CCCO3)c(-c3ccc(Cl)cc3)[nH]2)c1 (centres undefined) | inactive: -24.5%
CN(C)CCNC(=O)C(=O)NCC(c1cccnc1)N1CCN(c2ccccc2)CC1 (centres undefined) | inactive: 3.28%
COc1ccc(NC(=O)CN2C(=O)C(c3ccc(C)cc3)=NC23CCCCCC3)cc1Cl | inactive: -9.63%
